Data reported in the antibiotic and cytotoxicity screens of Wong et al. (2023).
This is one part of the list.

Assays:
[1] = tested on: HSkMC (human skeletal muscle cells); experiment: cytotoxicity call (relative viability < 0.9); conditions: 10 µM
[2] = tested on: HepG2; experiment: cytotoxicity call (relative viability < 0.9); conditions: 10 µM
[3] = tested on: S. aureus RN4220; experiment: growth inhibition call (relative growth <= 0.2); conditions: 50 µM

SMILES | cytotoxicity call [1] | cytotoxicity call [2] | growth inhibition call [3]
COC1=CC2C3Cc4ccc(OC)c(O)c4C2(CCN3C)CC1=O (centres undefined) | inactive | inactive | inactive
C[C@@H](N)C(=O)N[C@@H](CO)C(=O)N[C@H](C(=O)N[C@H](C(=O)N[C@H](C(=O)N[C@@H](CC(N)=O)C(=O)N[C@@H](Cc1ccc(O)cc1)C(=O)N[C@H](C(N)=O)[C@@H](C)O)[C@@H](C)O)[C@@H](C)O)[C@@H](C)O | inactive | inactive | inactive
O[C@@]12CCCC[C@@H]1CNCC2 | inactive | inactive | inactive
C[C@@H]1CN([C@H](C)CO)C(=O)CCCn2nncc2CO[C@H]1CN(C)C(=O)Oc1ccc2ccccc2c1 | inactive | inactive | inactive
CN(C)C(=O)[C@@]1(Cc2ccccc2N=[N+]=[N-])N=C(c2ccc(OCCCO)cc2)O[C@H]1c1ccccc1N=[N+]=[N-] | inactive | inactive | inactive
Oc1cc2c(cc1O)CNCC2 | inactive | inactive | inactive
CCCC(=O)O[C@H]1CN2CC[C@H](O)[C@@H]2[C@@H](O)[C@@H]1O | inactive | inactive | inactive
C1CC2(CCN1)OCCO2 | inactive | inactive | inactive
CN1CCN(CC2CC2)C(=O)C12CCNCC2 | inactive | inactive | inactive
CN1C(=O)CCS(=O)(=O)C1c1ccc(Cl)cc1 (centres undefined) | inactive | inactive | inactive
O=C1C=C2C(=CCOC2O)O1 (centres undefined) | active | active | active
C[C@H]1CN([C@@H](C)CO)C(=O)CCCn2cc(nn2)CO[C@H]1CN(C)C(=O)Oc1ccc2ccccc2c1 | inactive | inactive | inactive
CN1CCN(C(=O)[C@H]2C[C@H]3CN(c4ncccn4)C[C@@H]3N2C)CC1 | inactive | inactive | inactive
CC12C(=O)OC(=O)C1(C)C1CCC2O1 (centres undefined) | inactive | active | inactive
Cc1ccc(C)c(C(=O)[C@H](N)CC(C)C)c1 | inactive | inactive | inactive
CCC1(O)C(=O)OCc2c1cc1n(c2=O)Cc2cc3ccccc3nc2-1 (centres undefined) | inactive | active | inactive
CCOCC(=O)N1C[C@H]2CNC[C@H]2C1 | inactive | inactive | inactive
NC(=O)CN1C[C@@H](O)CC1=O | inactive | inactive | inactive
NCCc1ccncc1 | inactive | inactive | inactive
COc1cc2c(cc1O)CC1c3c(cc(O)c(OC)c3-2)CCN1C (centres undefined) | inactive | inactive | inactive
C[C@H]1CN([C@@H](C)CO)C(=O)CCCn2nncc2CO[C@@H]1CN(C)C(=O)Oc1cccc2ccccc12 | inactive | inactive | inactive
C[C@@]1(C(=O)O)[C@H]2CC[C@@H](O2)[C@@]1(C)C(=O)O | active | active | inactive
CNC(Cc1c[nH]c2ccccc12)C(=O)O (centres undefined) | inactive | inactive | inactive
COc1ccc(OC)c(CN)c1 | inactive | inactive | inactive
CNC[C@@H](O)c1ccc(O)c(OC)c1 | inactive | inactive | inactive
O=c1[nH]oc2c1CCNC2 | inactive | inactive | inactive

SMILES | cytotoxicity call [1] | cytotoxicity call [2] | growth inhibition call [3]
CCN1C[C@]2(OC(=O)c3ccccc3NC(C)=O)CC[C@H](OC)[C@@]34[C@@H]2C[C@@H]([C@@H]13)[C@@]1(O)C[C@H](OC)[C@H]2C[C@@H]4[C@]1(O)[C@H]2OC | inactive | inactive | inactive
CC(=O)O[C@H]1C[C@@H]2CC[C@@H]3[C@H](CC[C@@]4(C)[C@H]3C[C@H]([N+]3(C)CCCCC3)[C@@H]4OC(C)=O)[C@@]2(C)C[C@@H]1[N+]1(C)CCCCC1 | inactive | inactive | inactive
CP(=O)(O)C1=CCNCC1 | inactive | inactive | inactive
CNCCc1cnc[nH]1 | inactive | inactive | inactive
CCC(=O)OC1CCC2C3CCC4=CC(=O)CCC4(C)C3CCC12C (centres undefined) | inactive | inactive | inactive
CCC1C2CC3C4N(C)c5ccccc5C45CC(C2C5O)N3C1O (centres undefined) | inactive | inactive | inactive
CC(=O)OC1CCC2(C)C(CCC3C2CCC2(C)C(C4=CC(=O)OC4)C(OC(C)=O)CC32O)C1 (centres undefined) | active | active | inactive
COc1ccc(O)c(C(C)(C)C)c1 | inactive | inactive | inactive
Cc1o[nH]c(=O)c1C[C@@H](N)C(=O)O | inactive | inactive | inactive
CC1C=CC=CCCC=CC=CC=CC=CC(OC2OC(C)C(O)C(N)C2O)CC2OC(O)(CC(O)C(O)CCC(O)CC(O)CC(O)CC(=O)OC(C)C(C)C1O)CC(O)C2C(=O)O (centres undefined) | inactive | inactive | inactive
C=C1CC2C(CCC3(C)C(=O)CCC23)C2(C)C=CC(=O)C=C12 (centres undefined) | inactive | inactive | inactive
Cl.Cn1c(CCCC(=O)O)nc2cc(N(CCCl)CCCl)ccc21 | inactive | inactive | inactive
Cl.c1ccc2c(c1)OCC(C1=NCCN1)O2 (centres undefined) | inactive | active | inactive
O=c1[nH]c2cc(N3CCNCC3)ccc2o1 | inactive | active | inactive
CCC(C(N)=O)N1CCCC1=O (centres undefined) | inactive | inactive | inactive
Clc1ccc(C(c2ccc(Cl)cc2)C(Cl)(Cl)Cl)cc1 | inactive | inactive | inactive
NCc1cc(=O)[nH]o1 | inactive | inactive | inactive
C=C(C)C1Cc2c(ccc3c2OC2COc4cc(OC)c(OC)cc4C2C3=O)O1 (centres undefined) | inactive | active | inactive
CC1=C[C@H]2[C@]3(O)[C@H](C=C(CO)C[C@]2(O)C1=O)[C@H]1C(C)(C)[C@@]1(O)[C@H](O)[C@@H]3C | inactive | inactive | inactive
CN1CC2(CNC2)OCCS1(=O)=O | inactive | inactive | inactive
Cc1ccc(OC(=O)N(C)C[C@H]2OCc3ccccc3-c3c(n(C)c4ccccc34)C(=O)N([C@H](C)CO)C[C@H]2C)cc1 | inactive | inactive | inactive
Br.COc1ccc2c(c1)C13CCCCC1C(C2)N(C)CC3 (centres undefined) | inactive | inactive | inactive
C[N+](C)(C)CC#CCN1CCCC1=O | inactive | inactive | inactive
CN1C(=O)C(O)N=C(c2ccccc2)c2cc(Cl)ccc21 (centres undefined) | inactive | inactive | inactive
Clc1ccc(Cl)cc1 | inactive | inactive | inactive
Cc1ccc(C=C2C(=O)NC(=O)NC2=O)cc1 | inactive | inactive | inactive

SMILES | cytotoxicity call [1] | cytotoxicity call [2] | growth inhibition call [3]
C1CCc2nnnn2CC1 | inactive | inactive | inactive
C[C@]12CC/C(=N\OCCN)C[C@@H]1C(=O)C[C@@H]1[C@@H]2CC[C@]2(C)C(=O)CC[C@@H]12 | active | inactive | inactive
O=C1CCN(C(=O)C2CCC2)CC1 | inactive | inactive | inactive
COc1ccc(CN2CCNCC2)c(OC)c1OC.Cl.Cl | inactive | inactive | inactive
CC(C)[C@@]1(NC(=O)[C@@H]2C[C@@H]3c4cccc5[nH]cc(c45)C[C@H]3N(C)C2)O[C@@]2(O)[C@@H]3CCCN3C(=O)[C@H](Cc3ccccc3)N2C1=O | inactive | inactive | inactive
Cn1cc([C@@H](O)c2ccccc2)[n+](C)c1 | inactive | inactive | inactive
O=C1[O][SbH]23[O]C(=O)[C@H]([O]2)[C@H]2[O][SbH]4([O]C(=O)[C@H]([O]4)[C@H]1[O]3)[O]C2=O | active | active | active
[N-]=[N+]=NCc1ccccc1C[C@]1(C(=O)N2CCOCC2)N=C(c2ccc(OCCCO)cc2)O[C@H]1c1ccccc1N=[N+]=[N-] | inactive | active | inactive
CC(=O)CC1CCCCN1.Cl (centres undefined) | inactive | inactive | inactive
c1ccc(-c2ccncc2)cc1 | inactive | inactive | inactive
NC(=O)CS(=O)C(c1ccccc1)c1ccccc1 (centres undefined) | inactive | inactive | inactive
CC(C)n1cnnc1CCN | inactive | inactive | inactive
CC(=O)O[C@H]1C(=O)[C@]2(C)[C@@H](O)C[C@H]3OC[C@@]3(OC(C)=O)[C@@H]2[C@H](OC(=O)c2ccccc2)[C@]2(O)C[C@H](O)C(C)=C1C2(C)C | inactive | active | inactive
C1CCN(C[C@H]2CO[C@]3(CNCCOC3)C2)C1 | inactive | inactive | inactive
CO[C@H]1C[C@H](O[C@H]2CC[C@]3(C=O)[C@H]4CC[C@]5(C)[C@@H](C6=CC(=O)OC6)CC[C@]5(O)[C@@H]4CC[C@]3(O)C2)O[C@H](C)[C@H]1O | active | active | inactive
FC(F)(F)c1nnc(N2CCNCC2)s1 | inactive | inactive | inactive
CC(=O)OC1CC(OC2C(O)CC(OC3C(O)CC(OC4CCC5(C)C(CCC6C5CC(O)C5(C)C(C7=CC(=O)OC7)CCC65O)C4)OC3C)OC2C)OC(C)C1OC1OC(CO)C(O)C(O)C1O (centres undefined) | active | active | inactive
CO[C@H]1[C@@H](O)[C@@H](O[C@H]2CC[C@]3(C=O)[C@@H]4[C@@H](CC[C@]3(O)C2)[C@@]2(O)CC[C@H](C3=CC(=O)OC3)[C@@]2(C)C[C@H]4OC(C)=O)O[C@@H](C)[C@@H]1OC(C)=O | inactive | inactive | inactive
CO[C@@H]1[C@H](OC(=O)NC(=O)CCl)CC[C@]2(CO2)[C@H]1[C@@]1(C)O[C@@H]1CC=C(C)C | inactive | inactive | inactive
C[C@H](O)[C@]12[C@@H]3CC=C[C@H]1N2CC3 (some centres undefined) | inactive | inactive | inactive
O=C(O)C[C@@H]1CC[C@H]2NC[C@@H](O)COC[C@@H]2O1 | inactive | inactive | inactive
NSC(=S)N1CCCC1 | inactive | inactive | inactive
O=c1[nH]c2ccccc2n1C1CCN(Cc2ccc(-c3nc4cc5[nH]cnc5cc4nc3-c3ccccc3)cc2)CC1 | active | active | inactive
COc1cccc(N=[N+]=[N-])c1 | inactive | inactive | inactive
Cn1cc(CN2C[C@H]3CNC[C@H]3C2)cn1 | inactive | inactive | inactive
Cc1ccc2n[nH]c(CN)c2c1 | inactive | inactive | inactive
